# Laboratory results published in PubChem BioAssay AID686978 (National Center for Advancing Translational Sciences (NCATS), 2013).
# Among all 420,000 compounds or so, about 64,000 (15%) were called active. This list was built around the results that the source calls inconclusive (neither active nor inactive); the mix of calls is not that of the screen. The call rests on the fitted dose curve; in most records, active means well fitted inhibition curve with a large enough effect; inconclusive means small, poorly fitted or top-dose-only effect; inactive means flat fitted curve, though single readings scatter. Potencies of inconclusive entries are left out as doubtful fits.
# Test: qHTS for Inhibitors of human tyrosyl-DNA phosphodiesterase 1 (TDP1): qHTS in cells in absence of CPT; further: nearly all actives have a fitted effect of over 55% in size
# Details: DT40 Tdp1-/- hTDP1 cells, no CPT, ATP luminescence, 48 h; series mostly up to 46.2 µM
# Outline: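 Cells were dispensed at 400 per well, compounds added by pin tool, plates incubated ≥48 hr at 37 °C, then CellTiter-Glo added for 30 min at room temperature before luminescence reading. Line: DT40 Tdp1-/- complemented with hTDP1; camptothecin omitted.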
# Potency means the concentration at half of the fitted maximal effect; tags describe the fitted curve by direction and shape.
row,SMILES,Potency
1,COC(=O)c1c(NC(=O)COc2ccc(C)cc2Br)sc2c1CCCC2,"inconclusive [inhibitor, partial curve]"
2,O=C(NC1(C(F)(F)F)NC(=O)N(c2ccc(F)c(Cl)c2)C1=O)c1ccncc1 (stereo not drawn),inactive
3,CCOc1ccc2ccccc2c1C1NC(=O)N(C)C(C)=C1C(=O)OCCOC (stereo not drawn),"inconclusive [inhibitor, single point]"
4,O=C(COc1ccc(S(=O)(=O)N2CCCC2)cc1)N1CCN(c2ccccc2F)CC1,"inconclusive [inhibitor, single point]"
5,COc1ccc(CCNC(=O)c2ccccc2N(C)S(=O)(=O)c2ccccc2)cc1,inactive
6,N#Cc1cc2cc3c(cc2nc1NCCNC(=S)NCCCN1CCOCC1)OCO3,"inconclusive [inhibitor, partial curve]"
7,CN1CCN(C(=O)c2cc3nc(-c4ccccc4)cc(C(F)(F)F)n3n2)CC1,"inconclusive [inhibitor, single point]"
8,O=C1c2ccccc2C(=O)N1CCSc1ccccc1,inactive
9,COc1ccc2cc(C(=O)N3CCC(Cc4ccccc4)CC3)[nH]c2c1,"inconclusive [inhibitor, single point]"
10,Clc1cc(Cl)cc(Nc2ccccc2CN(C/C=C/c2ccc3c(c2)OCO3)Cc2ccccc2)c1,inactive
11,Cc1cccc(NC(=O)c2ccccc2OCC(=O)c2ccccc2)c1,active: 16.4 µM
12,CCN1C(=O)[C@H]2[C@H]3CN=C(SC)N3[C@@](C)(C(=O)OC)[C@H]2C1=O,inactive
13,COc1ccc(OCCCC(=O)Nc2cccc(S(=O)(=O)N3CCCCCC3)c2)cc1,"inconclusive [inhibitor, single point]"
14,COc1ccc(CN2CCN(Cc3ccc(C(F)(F)F)cc3)CC2)cc1,active: 23.1 µM
15,CCOc1ccc(N(C)S(=O)(=O)c2cc(-c3cc(C)no3)ccc2OC)cc1,active: 14.6 µM
16,COC(=O)c1c(-c2c(Cl)cccc2Cl)noc1C(=O)NN,inactive
17,Cc1cc(C)c2cc(C=O)c(Cl)nc2c1,active: 1.03 µM
18,COc1ccc(OC)c(C(c2nnnn2C2CCCC2)N2CCN(c3ccccc3)CC2)c1 (stereo not drawn),active: 20.6 µM
19,Cc1oc(-c2ccc(Cl)cc2)nc1CS(=O)CC(=O)NCc1cccs1 (stereo not drawn),"inconclusive [inhibitor, single point]"
20,COc1ccccc1CN(C)C(=O)c1cc(S(=O)(=O)N2CCCCCC2)ccc1OC,"inconclusive [inhibitor, single point]"
21,CN(CC(=O)N(C)CC(=O)Nc1c(Cl)cccc1Cl)Cc1ccc(Br)s1,"inconclusive [inhibitor, single point]"
22,Cc1ccc(-c2ccc3c(c2)O[C@H](CN(C)C(=O)CC2CC2)[C@H](C)CN([C@@H](C)CO)S3(=O)=O)cc1,inactive
23,COc1ccc(CCNC(=O)c2ccccc2NC(=O)C2=C(C)OCCS2)c(OC)c1,active: 10.3 µM
24,Cc1cc(C(=O)OCC(=O)N2c3ccccc3NC(=O)C2(C)C)c(C)n1-c1ccccc1,"inconclusive [inhibitor, single point]"
25,CCCOC(=O)Nc1ccccc1C(N)=O,inactive

row,SMILES,Potency
1,CC(C)CCNC(=O)CC1C(=O)N(Cc2ccccc2)C(C)c2nc3ccccc3n21 (stereo not drawn),inactive
2,CC1CCCN(S(=O)(=O)c2cnc[nH]2)C1 (stereo not drawn),inactive
3,COc1cccc(N2C(=O)C(CC(=O)Nc3ccccc3)N(CCc3sccc3C)C2=O)c1 (stereo not drawn),"inconclusive [inhibitor, single point]"
4,CC1CCCCC1NC(=O)Cn1[nH]c(=O)c2ccccc2c1=O (stereo not drawn),"inconclusive [inhibitor, single point]"
5,Cn1cc(CNC2CCN(c3cccc(NC(=O)c4cccnc4)c3)CC2)cn1,inactive
6,COc1ccc(S(=O)(=O)N(Cc2ccccc2)c2ccccc2C(=O)N2CCOCC2)cc1,"inconclusive [inhibitor, single point]"
7,Cc1ccc(C(NC(=O)N2CCCC2)C(Cl)(Cl)Cl)cc1F (stereo not drawn),active: 20.6 µM
8,COC(=O)c1cccnc1-n1c(=O)c2cccnc2n(CC(=O)Nc2ccc(Br)cc2)c1=O,"inconclusive [inhibitor, single point]"
9,COc1ccccc1NC(=O)CN1CCCCCC1,inactive
10,c1ccc(-c2nnc(-c3ccco3)n2-c2ccccc2)cc1,inactive
11,Clc1cccc(CSC2=NCCCN2)c1,inactive
12,CCn1cc(CN2CCC(n3nccc3NC(=O)C3CCCC3)CC2)cn1,inactive
13,CC(C)c1ccc(NC(=S)N(C)CCc2ccccn2)cc1,"inconclusive [inhibitor, single point]"
14,COCc1c(C(=O)N2CCN(S(=O)(=O)c3ccccc3Cl)CC2)oc2ccccc12,"inconclusive [inhibitor, single point]"
15,CCNC(=S)N1CCCC(c2nc3ccc(C)cc3[nH]2)C1 (stereo not drawn),"inconclusive [inhibitor, single point]"
16,COc1ccccc1N/C(=N/S(=O)(=O)c1ccc(C)cc1)c1ccc(Cl)cc1,"inconclusive [inhibitor, single point]"
17,CCCC(=O)n1nc(-c2cccnc2)nc1NCc1cccs1,"inconclusive [inhibitor, partial curve]"
18,CCCNC(=O)C(Cc1ccc(OC)cc1)NC(=O)c1ccc(Cl)cc1 (stereo not drawn),"inconclusive [inhibitor, single point]"
19,COc1ccccc1OCC(=O)N(Cc1nnc(-c2ccccc2Cl)o1)C1CC1,"inconclusive [inhibitor, full curve, poor fit]"
20,Cc1ccc(C)c2nc3sc(C(=O)N4CCOCC4)c(N)c3cc12,"inconclusive [inhibitor, single point]"
21,Cc1ccc(C(=O)N2CCN3C(=O)c4ccccc4C23c2ccccc2)cc1 (stereo not drawn),inactive
22,CCOc1cc(/C=N/NC(=O)c2ccncc2)cc(Cl)c1OS(C)(=O)=O,"inconclusive [inhibitor, single point]"
23,S=C1NC[C@H](CC2CCCCC2)N1CCc1cccc2ccccc12,"inconclusive [inhibitor, single point]"
24,O=C(c1cccs1)N1CCC(c2nc3c(nnn3Cc3c(Cl)cccc3Cl)c(=O)[nH]2)CC1,"inconclusive [inhibitor, partial curve]"
25,O=C(c1ccc(Br)cc1)c1cc2ccc(O)cc2oc1=O,active: 16.4 µM

row,SMILES,Potency
1,Cn1c(=O)c2c(nc(N3CCCCCC3)n2CC(O)COc2ccc(Cl)cc2)n(C)c1=O (stereo not drawn),"inconclusive [inhibitor, single point]"
2,Cc1c(CNC2CCC(C)CC2)c(C(=O)O)c(C)n1Cc1ccc(Cl)cc1 (stereo not drawn),"inconclusive [inhibitor, single point]"
3,CCOc1cc(C(=S)N2CCOCC2)ccc1OC,inactive
4,CCn1c(CNC(=O)c2ccco2)nnc1SCC(=O)Nc1cccc(F)c1,inactive
5,CCOC(=O)[C@H]1[C@H]2COc3ccc(OC)cc3[C@@H]2N2C(=O)CN(CCc3c[nH]c4ccccc34)C(=O)[C@@]12C,"inconclusive [inhibitor, single point]"
6,COc1ccc(C(=O)c2c(-c3ccc(OC)cc3)oc3ccc(-c4ccc(OC)nc4)cc23)cc1,"inconclusive [inhibitor, single point]"
7,O=C(CSc1nnc(-c2ccccc2)c(-c2ccccc2)n1)NCCc1ccccc1,"inconclusive [inhibitor, single point]"
8,CCOC(=O)C1=C(COc2ccc(C)cc2)NC(=O)NC1c1cc(C)ccc1C (stereo not drawn),active: 11.6 µM
9,Cc1ccccc1CC(=O)NCCN1CCOCC1,inactive
10,CC(=O)NC(c1ccccc1)c1nc(-c2ccc(F)c(Cl)c2)cs1 (stereo not drawn),"inconclusive [inhibitor, single point]"
11,CCOc1ccc(N(CC(=O)NCc2ccccc2)S(C)(=O)=O)cc1,inactive
12,O=C(NCc1cccc(Cl)c1)c1cccc2c(-c3cccnc3)coc12,"inconclusive [inhibitor, single point]"
13,COc1ccc(CNC(=O)C2CCN(S(=O)(=O)c3ccc4c(c3)C(C)(C)C(=O)N4C)CC2)cc1,"inconclusive [inhibitor, partial curve]"
14,Cc1cc(C)nc(N/N=C/c2ccccc2OCc2ccc(Cl)cc2)n1,"inconclusive [inhibitor, single point]"
15,Cn1c(Cn2cnc3ccccc32)nnc1SCc1ccccc1,"inconclusive [inhibitor, partial curve]"
16,CC(C)NC(=O)N1CCC2(CC1)CCN(C(=O)c1ccncc1)CC2,inactive
17,Cc1cc(=O)n(CC(=O)N2CCCc3ccccc32)c2c1c(C)nn2-c1cccc(F)c1,"inconclusive [inhibitor, single point]"
18,Cc1cccc(NC(=O)CSc2nnc([C@@H]3CCCN3C(=O)OC(C)(C)C)o2)c1C,"inconclusive [inhibitor, single point]"
19,CC(NC(=O)CCNS(=O)(=O)c1cccc2nonc12)c1ccccc1 (stereo not drawn),inactive
20,CCc1cccc(C)c1NC(=S)NCC(c1cccnc1)N(C)C (stereo not drawn),inactive
21,Cc1ccc(S(=O)(=O)N2CCN(S(=O)(=O)c3c(C)n[nH]c3C)CC2)cc1C,inactive
22,CN1CC(=O)N(CC(=O)Nc2cccc3ccccc23)C1=O,inactive
23,COc1ccc(C(=O)Nc2ccccc2C(=O)Nc2ccccn2)cc1,"inconclusive [inhibitor, single point]"
